From patent publication US11192921B2 (priority 2017, dated 2021)
Read-outs that look alike come from different tables or passages of the source. No end group written: not given here.

Test system: Male ddY mice
Conditions: for Hyperalgesia (pain-related score): coarse filaments; for Allodynia (pain-related score): fine filaments; for influence on allodynia: pain-related scores compared with the model group: P<0.05; for influence on hyperalgesia: pain-related scores compared with the model group: mouse, in vivo
Excerpt: Male ddY mice (7 weeks old) each weighing 20-25 g were used.
A filament mechanical pain threshold detector; fine filaments (equivalent to 0.0688 g of strength); coarse filaments (equivalent to 1.4798 g of strength); paclitaxel; polypeptides I, I I, III; loxoprofen; normal saline.
Mice were fed in an animal room at the temperature of (22±1)° C. and the relative humidity of 55%±10% for 1 week and then used for tests. Thirty-six mice were divided into model group (only paclitaxel was administrated), blank control group (no paclitaxel was administrated), loxoprofen group, polypeptide I group, polypeptide II group and polypeptide III group. In the loxoprofen group and the polypeptide groups, the corresponding drugs were given respectively 3 days before the administration of paclitaxel, for a total of 7 days. There were 6 mice in each group.
Preparation of a model for paclitaxel-induced pain: Mice were intraperitoneally injected with paclitaxel at a dose of 10 mg/kg for modeling.
Behavioral test of pain in mice: The mice were placed on a metal net divided into three compartments and stood for 15 min, and the reaction of mechanical stimulation on the metatarsal part of hind limbs was measured. Allodynia was evaluated with fine filaments first, and then the degree of hyperalgesia was evaluated with coarse filaments. Stimulus responses was performed 5 times for a total of 10 points. Evaluation criteria (0 point: rapid foot lifting action; 2 points: vigorous foot flick or foot licking. The measurement time was before paclitaxel administration and 24, 48, 72 and 96 h after paclitaxel administration).
The measurement data was expressed by M±SD, and T test was adopted for the differences between groups.

[1] = Before administration of paclitaxel

| Compound | Hyperalgesia (pain-related score) (24 h after paclitaxel 10 mg/kg) | Allodynia (pain-related score) (24 h after paclitaxel 10 mg/kg) | Hyperalgesia (pain-related score) (48 h after paclitaxel 10 mg/kg) | Allodynia (pain-related score) (48 h after paclitaxel 10 mg/kg) | Hyperalgesia (pain-related score) (72 h after paclitaxel 10 mg/kg) | Allodynia (pain-related score) (72 h after paclitaxel 10 mg/kg) | Hyperalgesia (pain-related score) (96 h after paclitaxel 10 mg/kg) | Allodynia (pain-related score) (96 h after paclitaxel 10 mg/kg) | Hyperalgesia (pain-related score) [1] | Allodynia (pain-related score) [1] | influence on allodynia: pain-related scores compared with the model group | influence on hyperalgesia: pain-related scores compared with the model group |
| --- | --- | --- | --- | --- | --- | --- | --- | --- | --- | --- | --- | --- |
| Gly-Ser-Cys-Ser-Thr-Pro-Pro-d{Cys}-Val-Leu-Tyr-Ser [Polypeptide I] | 5.1 ± 0.4 | 1.4 ± 0.2 | 3.6 ± 0.3 | 0.9 ± 0.3 | 2.3 ± 0.2 | 0.6 ± 0.2 | 2.3 ± 0.2 | 0.6 ± 0.2 | 2.2 ± 0.6 | 0.5 ± 0.1 | significantly lower than those of the model group | no significant difference |
| KCSTPPDAVLYC (cysteine pairing not given here) [Polypeptide III] | 5.3 ± 0.1 | 1.5 ± 0.4 | 3.7 ± 0.4 | 1.1 ± 0.1 | 2.3 ± 0.2 | 0.6 ± 0.4 | 2.3 ± 0.5 | 0.6 ± 0.3 | 2.3 ± 0.8 | 0.6 ± 0.2 | significantly lower than those of the model group | no significant difference |
| GSCSTPPSAVLYC (cysteine pairing not given here) [Polypeptide II] | 5.2 ± 0.3 | 1.5 ± 0.6 | 3.7 ± 0.4 | 1.0 ± 0.4 | 2.3 ± 0.4 | 0.6 ± 0.4 | 2.3 ± 0.6 | 0.6 ± 0.4 | 2.4 ± 0.2 | 0.6 ± 0.2 | significantly lower than those of the model group | no significant difference |
| CC(C(=O)O)c1ccc(CC2CCCC2=O)cc1 (stereo not shown) [Loxoprofen, loxoprofen, reference compound] |  |  |  |  |  |  |  |  |  |  |  | no significant difference |
